Common to all, as to experiment: ELISA, antigen captured by anti-His antibody on plate, HRP anti-IgG Fc detection
Background: ELISA stands for enzyme-linked immunosorbent assay.

The target of experiment [1] is T1, Human VEGF121/VEGF-A protein (human VEGF 121 isoform) with 6-His tag (human, UniProt P15692-9 27-147).
T1 construct: range 27-147; Bought from Sino Biological; captured on the ELISA plate through an anti-His-tag antibody; not shown: 6-His tag
T1 sequence (looked up): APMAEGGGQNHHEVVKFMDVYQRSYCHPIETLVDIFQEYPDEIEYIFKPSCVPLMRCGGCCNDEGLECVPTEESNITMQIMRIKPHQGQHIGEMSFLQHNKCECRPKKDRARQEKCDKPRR

In a further experiment the target is T2, Human IL-17A protein (human, UniProt Q16552 24-155).
T2 construct: Purchased

Another experiment deals with T3, Human PD-1 protein (human, UniProt Q15116 part only, limits assumed).
T3 construct: Purchased

Experiment [2] concerns the target T1, Human VEGF121/VEGF-A protein (human …). The source holds these as a separate data set.

Read-outs that look alike come from different tables or passages of the source.

Sequence of Human IL-17A protein (Q16552 24-155 limits assumed): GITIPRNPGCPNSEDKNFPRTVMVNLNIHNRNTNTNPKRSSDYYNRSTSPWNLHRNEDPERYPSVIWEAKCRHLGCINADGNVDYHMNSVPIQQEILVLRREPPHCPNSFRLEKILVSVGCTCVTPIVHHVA
Sequence of Human PD-1 protein (Q15116 25-167 limits assumed): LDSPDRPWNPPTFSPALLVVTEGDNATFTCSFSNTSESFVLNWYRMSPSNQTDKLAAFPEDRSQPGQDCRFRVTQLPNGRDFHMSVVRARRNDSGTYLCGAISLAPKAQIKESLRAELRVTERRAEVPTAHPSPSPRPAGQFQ

B1: mPD-1/LC-GS6-VEGFR-IgG4 (other)
heavy: QVQLVQSGVEVKKPGASVKVSCKASGYTFTNYYMYWVRQAPGQGLEWMGGINPSNGGTNFNEKFKNRVTLTTDSSTTTAYMELKSLQFDDTAVYYCARRDYRFDMGFDYWGQGTTVTVSSASTKGPSVFPLAPCSRSTSESTAALGCLVKDYFPEPVTVSWNSGALTSGVHTFPAVLQSSGLYSLSSVVTVPSSSLGTKTYTCNVDHKPSNTKVDKRV[in this place human IgG4 Fc with S228P P343R (EU numbers)]
light: EIVLTQSPATLSLSPGERATLSCRASKGVSTSGYSYLHWYQQKPGQAPRLLIYLASYLESGVPARFSGSGSGTDFTLTISSLEPEDFAVYYCQHSRDLPLTFGGGTKVEIKRTVAAPSVFIFPPSDEQLKSGTASVVCLLNNFYPREAKVQWKVDNALQSGNSQESVTEQDSKDSTYSLSSTLTLSKADYEKHKVYACEVTHQGLSSPVTKSFNRGECTGGGGSGGGGSGGGGSGGGGSGGGGSGGGGSTGSDTGRPFVEMYSEIPEIIHMTEGRELVIPCRVTSPNITVTLKKFPLDTLIPDGKRIIWDSRKGFIISNATYKEIGLLTCEATVNGHLYKTNYLTHRQTNTIIDVVLSPSHGIELSVGEKLVLNCTARTELNVGIDFNWEYPSSKHQHKKLVLSPVNRDLKTQSGSEMKKFLSTLTIDGVTRSDQGLYTCAASSGLMTKKNSTFVRVHEK
notes: Pembrolizumab IgG4 with Flt1d2-Flk1d3 fused to the C-terminus of the light chains through the GS6 linker; Expressed in CHO cells
For the molecule B1, the EC50 (in general, the concentration at which the effect is half-maximal) in experiment [1] amounted to 26 nM. Also, the binding result with Human IL-17A protein is given as “no binding”.

B2: IL-17A/LC-GS6-VEGFR-IgG4 (other)
heavy: QVQLVQSGAEVKKPGSSVKVSCKASGYSFTDYHIHWVRQAPGQGLEWMGVINPMYGTTDYNQRFKGRVTITADESTSTAYMELSSLRSEDTAVYYCARYDYFTGTGVYWGQGTLVTVSSASTKGPSVFPLAPCSRSTSESTAALGCLVKDYFPEPVTVSWNSGALTSGVHTFPAVLQSSGLYSLSSVVTVPSSSLGTKTYTCNVDHKPSNTKVDKRV[in this place human IgG4 Fc with S228P (EU numbers)]
light: DIVMTQTPLSLSVTPGQPASISCRSSRSLVHSRGNTYLHWYLQKPGQSPQLLIYKVSNRFIGVPDRFSGSGSGTDFTLKISRVEAEDVGVYYCSQSTHLPFTFGQGTKLEIKRTVAAPSVFIFPPSDEQLKSGTASVVCLLNNFYPREAKVQWKVDNALQSGNSQESVTEQDSKDSTYSLSSTLTLSKADYEKHKVYACEVTHQGLSSPVTKSFNRGECTGGGGSGGGGSGGGGSGGGGSGGGGSGGGGSTGSDTGRPFVEMYSEIPEIIHMTEGRELVIPCRVTSPNITVTLKKFPLDTLIPDGKRIIWDSRKGFIISNATYKEIGLLTCEATVNGHLYKTNYLTHRQTNTIIDVVLSPSHGIELSVGEKLVLNCTARTELNVGIDFNWEYPSSKHQHKKLVLSPVNRDLKTQSGSEMKKFLSTLTIDGVTRSDQGLYTCAASSGLMTKKNSTFVRVHEK
notes: Ixekizumab IgG4 with Flt1d2-Flk1d3 fused to the C-terminus of the light chains through the GS6 linker; Expressed in CHO cells; also called IL17α/LC-GS6-VEGFR
As for B2, the EC50 is 19 nM in experiment [1] and 2 nM with Human IL-17A protein. In addition, the binding result with Human PD-1 protein was “no binding”.

B3: Ang2/LC-GS6-VEGFR-IgG1 (other)
heavy: EVQLVESGGGLVQPGGSLRLSCAASGFTFSSYDIHWVRQATGKGLEWVSAIGPAGDTYYPGSVKGRFTISRENAKNSLYLQMNSLRAGDTAVYYCARGLITFGGLIAPFDYWGQGTLVTVSS[in this place human IgG1 constant region]
light: EIVLTQSPGTLSLSPGERATLSCRASQSVSSTYLAWYQQKPGQAPRLLIYGASSRATGIPDRFSGSGSGTDFTLTISRLEPEDFAVYYCQHYDNSQTFGQGTKVEIKRTVAAPSVFIFPPSDEQLKSGTASVVCLLNNFYPREAKVQWKVDNALQSGNSQESVTEQDSKDSTYSLSSTLTLSKADYEKHKVYACEVTHQGLSSPVTKSFNRGECTGGGGSGGGGSGGGGSGGGGSGGGGSGGGGSTGSDTGRPFVEMYSEIPEIIHMTEGRELVIPCRVTSPNITVTLKKFPLDTLIPDGKRIIWDSRKGFIISNATYKEIGLLTCEATVNGHLYKTNYLTHRQTNTIIDVVLSPSHGIELSVGEKLVLNCTARTELNVGIDFNWEYPSSKHQHKKLVLSPVNRDLKTQSGSEMKKFLSTLTIDGVTRSDQGLYTCAASSGLMTKKNSTFVRVHEK
notes: Nesvacumab IgG1 with Flt1d2-Flk1d3 fused to the C-terminus of the light chains through the GS6 linker; Expressed in CHO cells
Molecule B3 came in with an EC50 in experiment [2] of 13 nM.

The values are drawn from patent publication US20200325208A1 (IMMUNOWAKE, published 2020).
